For part of its entries the source gives two or more results. This list holds those alone. How the calls were made is not given here. An entry can have further records. Values given together are repeated measurements (runs, samples, wells, individuals or studies). Marks in square brackets tell the records apart. Letters hold for one entry only.
Tested on: rodent lifetime carcinogenesis bioassay, tumor incidence TD50
Assay: carcinogenic potency in animals, long-term in vivo studies, CPDB compilation (AID 1745844)

CC(=O)Nc1nc(-c2ccc([N+](=O)[O-])o2)cs1
TD50 (rat, strain Sprague-Dawley, females, in feed, site: any site (literature study), lesion: several types, types named in the paper, dosed 46 weeks, study length 66 weeks): 7.25 mg/kg/day [study A] and 22.8 mg/kg/day [study B] and 27.7 mg/kg/day [study C]

CC(C)CCCCCCOC(=O)c1ccccc1C(=O)OCCCCCCC(C)C
TD50 (rat, strain Fischer 344, females, in feed, site: liver, lesion: several types, types named in the paper, dosed 104 weeks, study length 104 weeks): 81300 mg/kg/day [study A] and 4570 mg/kg/day [study B]
TD50 (rat, strain Fischer 344, males, in feed, site: all sites, lesion: mononuclear-cell leukemia, dosed 104 weeks, study length 104 weeks): 266 mg/kg/day [study A] and 2100 mg/kg/day [study B]
TD50 (rat, strain Fischer 344, males, in feed, site: liver, lesion: several types, types named in the paper, dosed 104 weeks, study length 104 weeks): 9760 mg/kg/day [study A] and 1540 mg/kg/day [study B]

CN(N=O)c1ncnc2nc[nH]c12
TD50 (mouse, strain Swiss CD-1, females, in drinking water, site: lung, lesion: one or several types, types not named, dosed 104 weeks, study length 104 weeks): 909 mg/kg/day [sample A] and 17.4 mg/kg/day [sample B]

COP(=O)(OC)OC(=CCl)c1cc(Cl)c(Cl)cc1Cl
TD50 (mouse, strain B6C3F1, females, in feed, site: liver, lesion: hepatocellular adenoma, dosed 103 weeks, study length 103 weeks): 65000 mg/kg/day [study A] and 21400 mg/kg/day [study B]

C=CCl
TD50 (rat, strain Sprague-Dawley, females, inhaled, site: Zymbal's gland, lesion: carcinoma, dosed 52 weeks, study length 131 weeks): 3640 mg/kg/day [study A] and 44.6 mg/kg/day [study B]
TD50 (rat, strain Sprague-Dawley, females, inhaled, site: any site (literature study), lesion: several types, types named in the paper, dosed 52 weeks, study length 131 weeks): 2770 mg/kg/day [study A] and 1.09 mg/kg/day [study B]
TD50 (rat, strain Sprague-Dawley, females, inhaled, site: extrahepatic tissue, lesion: angioma, dosed 52 weeks, study length 131 weeks): 94900 mg/kg/day [study A] and 75.1 mg/kg/day [study B]
TD50 (rat, strain Sprague-Dawley, females, inhaled, site: liver, lesion: angioma, dosed 52 weeks, study length 131 weeks): 3140 mg/kg/day [study A] and 60.1 mg/kg/day [study B]
TD50 (rat, strain Sprague-Dawley, males, inhaled, site: Zymbal's gland, lesion: carcinoma, dosed 52 weeks, study length 123 weeks): 315 mg/kg/day [study A] and 63.3 mg/kg/day [study B]
TD50 (rat, strain Sprague-Dawley, males, inhaled, site: any site (literature study), lesion: several types, types named in the paper, dosed 52 weeks, study length 123 weeks): 66.2 mg/kg/day [study A] and 8.44 mg/kg/day [study B]

CCOC(=O)c1ccc(N)cc1
TD50 (rat, strain ACI, males, in feed, site: colorectum, lesion: papilloma, dosed 68 weeks, study length 68 weeks): inactive: 4250 mg/kg/day [sample A] and 466 mg/kg/day [sample B]

CN(C)N
TD50 (mouse, strain Charles River CD1, females, in drinking water, site: all sites, lesion: hemangiosarcoma, dosed 104 weeks, study length 104 weeks): 328 mg/kg/day [study A] and 11.4 mg/kg/day [study B]
TD50 (mouse, strain Charles River CD1, females, in drinking water, site: liver, lesion: all vascular tumors, dosed 104 weeks, study length 104 weeks): 68.2 mg/kg/day [study A] and 11.8 mg/kg/day [study B]
TD50 (mouse, strain Charles River CD1, females, in drinking water, site: liver, lesion: hemangiosarcoma, dosed 104 weeks, study length 104 weeks): 54.9 mg/kg/day [study A] and 12.2 mg/kg/day [study B]
TD50 (mouse, strain Charles River CD1, females, in drinking water, site: lung, lesion: alveolar/bronchiolar adenoma, dosed 52 weeks, study length 52 weeks): inactive: 28.5 mg/kg/day [study A] and 3.93 mg/kg/day [study B]
TD50 (mouse, strain Charles River CD1, females, in drinking water, site: lung, lesion: alveolar/bronchiolar adenoma, dosed 104 weeks, study length 104 weeks): 6.46 mg/kg/day [study A] and 37.1 mg/kg/day [study B]
TD50 (mouse, strain Charles River CD1, females, in drinking water, site: lung, lesion: alveolar/bronchiolar carcinoma, dosed 104 weeks, study length 104 weeks): 23.3 mg/kg/day [study A] and 199 mg/kg/day [study B]
TD50 (mouse, strain Charles River CD1, females, in drinking water, site: lung, lesion: several types, types named in the paper, dosed 104 weeks, study length 104 weeks): 4.12 mg/kg/day [study A] and 27 mg/kg/day [study B]
TD50 (mouse, strain Charles River CD1, males, in drinking water, site: all sites, lesion: hemangiosarcoma, dosed 104 weeks, study length 104 weeks): 26.7 mg/kg/day [study A] and 6.53 mg/kg/day [study B]
TD50 (mouse, strain Charles River CD1, males, in drinking water, site: liver, lesion: hemangiosarcoma, dosed 104 weeks, study length 104 weeks): 44.8 mg/kg/day [study A] and 6.88 mg/kg/day [study B]
TD50 (mouse, strain Charles River CD1, males, in drinking water, site: liver, lesion: hepatocellular adenoma, dosed 104 weeks, study length 104 weeks): 29.7 mg/kg/day [study A] and 140 mg/kg/day [study B]
TD50 (mouse, strain Charles River CD1, males, in drinking water, site: liver, lesion: several types, types named in the paper, dosed 104 weeks, study length 104 weeks): 7.22 mg/kg/day [study A] and 2.4e+07 mg/kg/day [study B]
TD50 (mouse, strain Charles River CD1, males, in drinking water, site: lung, lesion: alveolar/bronchiolar adenoma, dosed 104 weeks, study length 104 weeks): 116 mg/kg/day [study A] and 34.3 mg/kg/day [study B]

CC/C(=C(\c1ccccc1)c1ccc(OCCN(C)C)cc1)c1ccccc1
TD50 (rat, strain Charles River CD (Sprague-Dawley), females, by gavage, site: liver, lesion: hepatocellular adenoma, dosed 52 weeks, study length 52 weeks): 1.68 mg/kg/day [study A] and 5.8 mg/kg/day [study B]

CCCC(Cl)CCCC(Cl)CCC(Cl)CCC(Cl)CCC(Cl)CCCC(Cl)CCC (centres undefined)
TD50 (mouse, strain B6C3F1, females, by gavage, site: any site (literature study), lesion: several types, types named in the paper, dosed 103 weeks, study length 104 weeks): 5830 mg/kg/day [sample A, study A] and 170 mg/kg/day [sample B, study B]
TD50 (mouse, strain B6C3F1, females, by gavage, site: liver, lesion: hepatocellular adenoma + hepatocellular carcinoma + neoplastic nodule, dosed 103 weeks, study length 104 weeks): 10500 mg/kg/day [sample A, study A] and 93.8 mg/kg/day [sample B, study B]
TD50 (mouse, strain B6C3F1, females, by gavage, site: liver, lesion: hepatocellular adenoma + hepatocellular carcinoma, dosed 103 weeks, study length 104 weeks): 10500 mg/kg/day [sample A, study A] and 93.8 mg/kg/day [sample B, study B]
TD50 (mouse, strain B6C3F1, females, by gavage, site: liver, lesion: hepatocellular adenoma, dosed 103 weeks, study length 104 weeks): 16200 mg/kg/day [sample A, study A] and 105 mg/kg/day [sample B, study B]
TD50 (mouse, strain B6C3F1, females, by gavage, site: liver, lesion: hepatocellular carcinoma, dosed 103 weeks, study length 104 weeks): 14000 mg/kg/day [sample A, study A] and 596 mg/kg/day [sample B, study B]
TD50 (mouse, strain B6C3F1, males, by gavage, site: any site (literature study), lesion: several types, types named in the paper, dosed 103 weeks, study length 104 weeks): 36400 mg/kg/day [sample A, study A] and 211 mg/kg/day [sample B, study B]
TD50 (mouse, strain B6C3F1, males, by gavage, site: liver, lesion: hepatocellular adenoma + hepatocellular carcinoma + neoplastic nodule, dosed 103 weeks, study length 104 weeks): 12300 mg/kg/day [sample A, study A] and 143 mg/kg/day [sample B, study B]
TD50 (mouse, strain B6C3F1, males, by gavage, site: lung, lesion: alveolar/bronchiolar adenoma + alveolar/bronchiolar carcinoma, dosed 103 weeks, study length 104 weeks): 31100 mg/kg/day [sample A, study A] and 851 mg/kg/day [sample B, study B]

CCCCOCCOCCOCc1cc2c(cc1CCC)OCO2
TD50 (mouse, strain B6AKF1, females, oral dosing, site: any site (literature study), lesion: several types, types named in the paper, dosed 76 weeks, study length 76 weeks): inactive: 1010 mg/kg/day [sample A, study B] and 265 mg/kg/day [sample B, study A]
TD50 (mouse, strain B6C3F1, males, oral dosing, site: any site (literature study), lesion: several types, types named in the paper, dosed 76 weeks, study length 76 weeks): inactive: 93.1 mg/kg/day [sample A, study B] and 22.4 mg/kg/day [sample B, study A]

ClC=C(Cl)Cl
TD50 (rat, strain Sprague-Dawley, females, inhaled, site: all sites, lesion: leukemia, dosed 104 weeks, study length 159 weeks): 4.6e+09 mg/kg/day [study A] and 2850 mg/kg/day [study B]
TD50 (rat, strain Sprague-Dawley, females, inhaled, site: any site (literature study), lesion: malignant tumor, dosed 104 weeks, study length 159 weeks): 6230 mg/kg/day [study A] and 1620 mg/kg/day [study B]
TD50 (rat, strain Sprague-Dawley, males, inhaled, site: any site (literature study), lesion: malignant tumor, dosed 104 weeks, study length 159 weeks): 10800 mg/kg/day [study A] and 1940 mg/kg/day [study B]
TD50 (rat, strain Sprague-Dawley, males, inhaled, site: any site (literature study), lesion: several types, types named in the paper, dosed 104 weeks, study length 159 weeks): 1880 mg/kg/day [study A] and 428 mg/kg/day [study B]

CCO
TD50 (rat, strain Sprague-Dawley, females, in drinking water, site: any site (literature study), lesion: benign tumor, dosed 104 weeks, study length 120 weeks): 3150 mg/kg/day [study A] and 12100 mg/kg/day [study B]

Oc1ccccc1O
TD50 (rat, strain F344/DuCrj, males, in feed, site: stomach, glandular, lesion: adenocarcinoma, dosed 51 weeks, study length 52 weeks): 257 mg/kg/day [study A] and 833 mg/kg/day [study B]

CNc1ccc(N(CCO)CCO)cc1[N+](=O)[O-]
TD50 (mouse, strain B6C3F1, females, in feed, site: liver, lesion: hepatocellular adenoma, dosed 91 weeks, study length 91 weeks): 917 mg/kg/day [sample A, study A] and 287 mg/kg/day [sample B, study B] and 574 mg/kg/day [sample B, study C]
TD50 (mouse, strain B6C3F1, females, in feed, site: liver, lesion: hepatocellular adenoma, dosed 100 weeks, study length 100 weeks): 530 mg/kg/day [sample A, study A] and 185 mg/kg/day [sample B, study B] and 1300 mg/kg/day [sample B, study C]

— PubChem BioAssay AID1745844 (Carcinogenic Potency Database (CPDB), 2022)
